Over roughly 33,000 sequences, “E-score (-0.5 to 0.5)” has its median near -0.054; the highest 2% begin near 0.39. The list shows a part of the results.
These sequences were tested against Ylr278c (UniProt Q05854) (assay: PBM E-score (8-mer binding enrichment) (E-score (-0.5 to 0.5)); higher = stronger / more preferred TF binding; most listed sequences are background and not binding sites). Conditions: protein concentration: 200 nM; construct: GST-DNA-binding domain.
How it was run: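 GST-tagged yeast TFs (full-length or DNA-binding domain) were made by PURExpress in vitro transcription/translation and applied at about 100-200 nM to universal all-10-mer Agilent arrays. The arrays were made double-stranded by primer extension, on fresh or once-stripped slides. Bound protein was detected with fluorescent anti-GST, and scans were normalised with masliner. Each ungapped eight-base word, pooled with its reverse complement, received an E-score (modified Wilcoxon-Mann-Whitney statistic) from the Universal PBM Analysis Suite.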
AACGCATT was tested, and the “PBM E-score” value was 0.0592. In the case of CCCCTCCC, the “PBM E-score” value is reported as -0.0571. For AATCAAGA, the “PBM E-score” value was -0.168. TAAAAGTA was tested, and the “PBM E-score” value was 0.00072. ATGGCCCA was tested, and the “PBM E-score” value was -0.00739. TGATAAAA was tested, and the “PBM E-score” value was -0.0664. With GATTTCAA the “PBM E-score” value was 0.214. In the case of ATAGGACG, the “PBM E-score” value is reported as -0.0359. GGCTACCA was tested, and the “PBM E-score” value was -0.11. With AGCCACCT the “PBM E-score” value was -0.269. ATGATTAG was tested, and the “PBM E-score” value was -0.0554. In the case of CGTTACGA, the “PBM E-score” value is reported as 0.0615. GGTTCTGA was tested, and the “PBM E-score” value was -0.0968. GCATGCGA was tested, and the “PBM E-score” value was 0.0188. GCCGTGAC was tested, and the “PBM E-score” value was 0.0202. With CCGTACTC the “PBM E-score” value was 0.0606. GGTCACCA was tested, and the “PBM E-score” value was -0.288. For CTATCGAG, the “PBM E-score” value was -0.191. With AAGCTAAT the “PBM E-score” value was -0.0983. With CGTGGGGC the “PBM E-score” value was 0.107. AGTTATCG was tested, and the “PBM E-score” value was 0.195. In the case of CTGTGTAC, the “PBM E-score” value is reported as -0.0473. For ACCAACAT, the “PBM E-score” value was -0.072. For GCCGCCTA, the “PBM E-score” value was 0.019. CAGATCCA was tested, and the “PBM E-score” value was -0.0494. For CAGGTGAA, the “PBM E-score” value was -0.189. CCAGCGAA was tested, and the “PBM E-score” value was -0.0882. CCAAAACC was tested, and the “PBM E-score” value was -0.0239. GTCAACAA was tested, and the “PBM E-score” value was -0.23. AGCCAGCC was tested, and the “PBM E-score” value was -0.18. ACTGTCTG was tested, and the “PBM E-score” value was -0.228. With AAATAGTA the “PBM E-score” value was 0.0229. In the case of AGTGTGCC, the “PBM E-score” value is reported as -0.0151. For CGGGGGTA, the “PBM E-score” value was 0.334. For CCCGAAAA, the “PBM E-score” value was 0.294. For AATGCTGT, the “PBM E-score” value was -0.229. For AGGCTAAT, the “PBM E-score” value was 0.0326. With CACGCTTA the “PBM E-score” value was -0.136. In the case of CATGTACC, the “PBM E-score” value is reported as -0.176. For GCCTGCCA, the “PBM E-score” value was -0.0756. With CATAAGAC the “PBM E-score” value was -0.0531. In the case of ATGGGTAG, the “PBM E-score” value is reported as -0.221. In the case of TGACCGAA, the “PBM E-score” value is reported as 0.0673. With ACTGTAAA the “PBM E-score” value was 0.0444. AAACCAAA was tested, and the “PBM E-score” value was -0.08. GAGGATTA was tested, and the “PBM E-score” value was -0.121. In the case of GCCGACAC, the “PBM E-score” value is reported as 0.181. For GAACTTGC, the “PBM E-score” value was -0.00576. In the case of CTTCGATA, the “PBM E-score” value is reported as -0.00519. In the case of ACCCGGAG, the “PBM E-score” value is reported as 0.46. In the case of GCAGCACA, the “PBM E-score” value is reported as -0.0608. GGCAGTAA was tested, and the “PBM E-score” value was 0.099. For AAAAAGAG, the “PBM E-score” value was -0.21. CGGGACGA was tested, and the “PBM E-score” value was 0.0447. ACTTAAGC was tested, and the “PBM E-score” value was -0.112. CCAGGGCC was tested, and the “PBM E-score” value was -0.186. GGAATGGA was tested, and the “PBM E-score” value was 0.0354. For AGACCGAG, the “PBM E-score” value was 0.189. With GCGAATAA the “PBM E-score” value was 0.0644. With AAGTCCAG the “PBM E-score” value was -0.0689. With ACGATAAG the “PBM E-score” value was 0.119. For AATTCTAC, the “PBM E-score” value was -0.209. With GCTTGCAA the “PBM E-score” value was -0.0736. TAATCTCA was tested, and the “PBM E-score” value was -0.0434. With ACGGGCTA the “PBM E-score” value was -0.081. CTTCTGAA was tested, and the “PBM E-score” value was -0.00463. ACATGGCG was tested, and the “PBM E-score” value was -0.165. In the case of AAGTTAAA, the “PBM E-score” value is reported as -0.151. With ATAGGTAG the “PBM E-score” value was -0.186. CCGCGACG was tested, and the “PBM E-score” value was 0.188. GGGGTATA was tested, and the “PBM E-score” value was 0.0253. For CGGCATTC, the “PBM E-score” value was 0.359. GGACAAAA was tested, and the “PBM E-score” value was 0.333. With ATGCACCC the “PBM E-score” value was 0.138. In the case of AGCCCACA, the “PBM E-score” value is reported as -0.253. For ACATGGAC, the “PBM E-score” value was -0.249. With CACTCGAC the “PBM E-score” value was -0.0709. With CTGGGAAG the “PBM E-score” value was -0.172. In the case of AAAGGGCC, the “PBM E-score” value is reported as -0.198. For CTGAGAAC, the “PBM E-score” value was -0.152. With CAAATGTC the “PBM E-score” value was 0.0103. TCATTTCA was tested, and the “PBM E-score” value was 0.0142. ATTGGCGC was tested, and the “PBM E-score” value was -0.0108. CGGAGCAA was tested, and the “PBM E-score” value was 0.456. For CTCTTACA, the “PBM E-score” value was -0.261. With CGGATCTA the “PBM E-score” value was 0.32. With ACACGCCA the “PBM E-score” value was -0.0767. ACTCCCGC was tested, and the “PBM E-score” value was 0.26. For ATGTAAAC, the “PBM E-score” value was 0.0031. GTTCGCCA was tested, and the “PBM E-score” value was -0.0345. With GCCCGCAA the “PBM E-score” value was 0.149. AAAGGACT was tested, and the “PBM E-score” value was -0.0605. With ACAGATAT the “PBM E-score” value was -0.119. In the case of AAACTAAG, the “PBM E-score” value is reported as -0.138. For ACGTTTCG, the “PBM E-score” value was -0.029. CATCAAAA was tested, and the “PBM E-score” value was -0.0377. GAATAGGA was tested, and the “PBM E-score” value was 0.0304. In the case of ATCATCAT, the “PBM E-score” value is reported as -0.156. In the case of TACGAAAA, the “PBM E-score” value is reported as -0.0945. With ACTAAAAC the “PBM E-score” value was -0.0575. With AGCTGTCC the “PBM E-score” value was -0.212. In the case of AGAGTTTG, the “PBM E-score” value is reported as -0.127. In the case of TACGCCTA, the “PBM E-score” value is reported as -0.215. With GGGTGTCA the “PBM E-score” value was -0.0267. In the case of CCCCGACC, the “PBM E-score” value is reported as 0.28. For CGGCAACA, the “PBM E-score” value was 0.235. AATAATGC was tested, and the “PBM E-score” value was 0.176. In the case of CGTCACCA, the “PBM E-score” value is reported as -0.174. With AAACCTGC the “PBM E-score” value was -0.114. For TAGAGCGA, the “PBM E-score” value was -0.168. TAACGCCA was tested, and the “PBM E-score” value was -0.143. For TGATTACA, the “PBM E-score” value was -0.145. With AGCTACTG the “PBM E-score” value was 0.016. In the case of ATGCCTAG, the “PBM E-score” value is reported as -0.196. For CAACCTCC, the “PBM E-score” value was 0.272. In the case of AGTATCCA, the “PBM E-score” value is reported as -0.108. For ATCAAGAA, the “PBM E-score” value was -0.112. In the case of AAGATGAA, the “PBM E-score” value is reported as -0.097. For ACCCCTAT, the “PBM E-score” value was -0.0191. For GTCAACGA, the “PBM E-score” value was -0.222. For CGACCTGC, the “PBM E-score” value was 0.098. CAGTGTGA was tested, and the “PBM E-score” value was -0.125. With CGATGTGC the “PBM E-score” value was 0.128. GATGGCCA was tested, and the “PBM E-score” value was -0.102. ACTCCCAC was tested, and the “PBM E-score” value was -0.035. With GTGCGTTA the “PBM E-score” value was 0.0296. TGATACAA was tested, and the “PBM E-score” value was -0.0733. In the case of ACCATTCT, the “PBM E-score” value is reported as -0.091. With CACCCTGA the “PBM E-score” value was -0.19. In the case of GACAGGAA, the “PBM E-score” value is reported as 0.0396. In the case of TAACTACA, the “PBM E-score” value is reported as -0.0834. With CAAAACAC the “PBM E-score” value was 0.0478. CACCCTCC was tested, and the “PBM E-score” value was 0.178. In the case of CGATCCGA, the “PBM E-score” value is reported as 0.364. For CTGCGCAA, the “PBM E-score” value was 0.185. In the case of CTGTATGA, the “PBM E-score” value is reported as -0.016. ACGTAGAG was tested, and the “PBM E-score” value was -0.216. For AACGAGCT, the “PBM E-score” value was -0.129. For AAACCTTC, the “PBM E-score” value was -0.0365. For AGTGGAAG, the “PBM E-score” value was -0.0517. With ATGAACTG the “PBM E-score” value was 0.0679. For CCCGACTC, the “PBM E-score” value was 0.194. GATTGTTA was tested, and the “PBM E-score” value was -0.0198. With CCAGTAGC the “PBM E-score” value was 0.181. In the case of CCTCAGCG, the “PBM E-score” value is reported as 0.0654. With AGTGCAGA the “PBM E-score” value was -0.0916. AACAAGTT was tested, and the “PBM E-score” value was -0.0236. With ACTCCTCA the “PBM E-score” value was -0.21. In the case of AGGTCGTA, the “PBM E-score” value is reported as -0.221. For AAAACCGC, the “PBM E-score” value was 0.122. With AGTACAGC the “PBM E-score” value was -0.0594. AAACTCCA was tested, and the “PBM E-score” value was 0.176. In the case of ATACAATC, the “PBM E-score” value is reported as -0.0309. ACGACTAG was tested, and the “PBM E-score” value was -0.256. With ACGGGGCG the “PBM E-score” value was 0.208. For CACGACGC, the “PBM E-score” value was 0.0518. In the case of CATGGCGC, the “PBM E-score” value is reported as 0.0912. CGCCCGCC was tested, and the “PBM E-score” value was 0.319. For AGATTTGC, the “PBM E-score” value was 0.0503. With ATCCATTA the “PBM E-score” value was -0.0934. CGCATCCG was tested, and the “PBM E-score” value was 0.308. With AACGCATG the “PBM E-score” value was -0.0833. For ATACATCG, the “PBM E-score” value was 0.0697. With ATCGCCAA the “PBM E-score” value was -0.201. For ACCATGCG, the “PBM E-score” value was -0.0305. In the case of GGGTCGCA, the “PBM E-score” value is reported as 0.139. CATTGGTA was tested, and the “PBM E-score” value was 0.1. With ATGTCCTC the “PBM E-score” value was -0.196. For CGCCTATC, the “PBM E-score” value was 0.0398. With GCTCTTGA the “PBM E-score” value was -0.177. In the case of AGTCATGG, the “PBM E-score” value is reported as -0.117. In the case of ACTACCAG, the “PBM E-score” value is reported as -0.0285.
